In all, about 220,000 compounds went through this assay and about 5,700 (2.6%) were called active. This list was built around the results that the source calls inconclusive (neither active nor inactive); the mix of calls is not that of the screen. The call rests on the fitted dose curve; in most records, active means well fitted inhibition curve with a large enough effect; inconclusive means small, poorly fitted or top-dose-only effect; inactive means no such curve, though single readings can be large or run the other way. Where the call is inconclusive, the potency comes from a doubtful curve fit.
Molecular target: Lysine-specific demethylase 5B (Homo sapiens) (UniProt Q9UGL1)
Experiment: Primary screen for KDM5B Histone Demethylases FDH-coupled qHTS; further: nearly all actives have a fitted effect of over 70% in size; on activity change, negative = inhibition: 0% is about no effect
Details: FDH-coupled NADH fluorescence (FDH is formaldehyde dehydrogenase); activity change, negative = inhibition: at 57.7 µM (top of the series) unless noted
In short: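 Measured: NADH fluorescence change, 30 min, RT. System: KDM5BΔAP 200 nM final, H3K4me3 peptide, α-KG, Fe(II), ascorbate, NAD⁺ plus FDH, pH 7.5 HEPES. Compounds: titrated, 10 min pre-incubation with enzyme.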
Potency means the concentration at half of the fitted maximal effect; tags describe the fitted curve by direction and shape.

Sequence of UniProt Q9UGL1 (Q9UGL1 whole entry, looked up): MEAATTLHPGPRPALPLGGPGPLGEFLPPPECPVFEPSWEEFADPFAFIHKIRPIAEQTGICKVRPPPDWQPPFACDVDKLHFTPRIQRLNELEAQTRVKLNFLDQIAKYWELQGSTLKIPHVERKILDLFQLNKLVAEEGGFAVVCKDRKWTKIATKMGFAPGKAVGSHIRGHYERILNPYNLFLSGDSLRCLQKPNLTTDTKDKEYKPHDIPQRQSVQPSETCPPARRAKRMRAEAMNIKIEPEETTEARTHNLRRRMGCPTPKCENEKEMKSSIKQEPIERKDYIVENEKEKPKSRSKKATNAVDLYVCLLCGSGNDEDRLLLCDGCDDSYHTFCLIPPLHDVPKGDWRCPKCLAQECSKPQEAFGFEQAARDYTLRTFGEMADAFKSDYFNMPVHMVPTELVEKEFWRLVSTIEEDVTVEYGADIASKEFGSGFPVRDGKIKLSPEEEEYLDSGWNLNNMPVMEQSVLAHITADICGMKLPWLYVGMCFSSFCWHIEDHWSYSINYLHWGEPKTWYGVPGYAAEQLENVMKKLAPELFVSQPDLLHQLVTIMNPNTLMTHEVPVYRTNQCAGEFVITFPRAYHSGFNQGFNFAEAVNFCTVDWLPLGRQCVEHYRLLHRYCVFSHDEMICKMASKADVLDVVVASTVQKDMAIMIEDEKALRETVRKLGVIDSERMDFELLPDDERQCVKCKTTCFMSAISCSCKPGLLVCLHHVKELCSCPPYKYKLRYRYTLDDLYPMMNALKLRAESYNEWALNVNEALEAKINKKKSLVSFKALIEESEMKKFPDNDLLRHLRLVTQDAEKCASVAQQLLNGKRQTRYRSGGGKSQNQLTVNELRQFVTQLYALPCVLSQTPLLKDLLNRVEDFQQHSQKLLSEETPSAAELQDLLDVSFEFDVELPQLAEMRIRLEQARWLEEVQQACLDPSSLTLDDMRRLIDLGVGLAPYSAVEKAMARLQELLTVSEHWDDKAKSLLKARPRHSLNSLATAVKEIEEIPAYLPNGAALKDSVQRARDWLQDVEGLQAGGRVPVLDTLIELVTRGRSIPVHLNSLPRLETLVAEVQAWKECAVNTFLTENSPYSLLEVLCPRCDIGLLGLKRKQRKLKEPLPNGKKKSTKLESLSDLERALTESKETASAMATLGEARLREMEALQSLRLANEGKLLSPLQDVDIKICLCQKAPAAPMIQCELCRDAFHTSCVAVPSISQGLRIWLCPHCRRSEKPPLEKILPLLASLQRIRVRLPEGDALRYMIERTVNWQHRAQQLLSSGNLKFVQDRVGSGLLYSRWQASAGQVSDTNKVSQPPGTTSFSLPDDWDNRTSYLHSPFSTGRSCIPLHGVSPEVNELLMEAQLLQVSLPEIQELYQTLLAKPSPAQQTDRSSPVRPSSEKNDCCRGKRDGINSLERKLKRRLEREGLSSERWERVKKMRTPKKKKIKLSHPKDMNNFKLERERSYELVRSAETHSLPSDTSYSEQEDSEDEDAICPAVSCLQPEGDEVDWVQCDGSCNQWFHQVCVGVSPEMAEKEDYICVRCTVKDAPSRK

SMILES	Potency	activity change, negative = inhibition
Cc1ccc(CNC(=O)CS(=O)(=O)Cc2nc(-c3ccccc3C)oc2C)cc1	inconclusive: 35.5 µM [inhibitor, single point]	–
CCOc1cc(S(=O)(=O)N2CCN(CCO)CC2)ccc1Br	–	inactive: 16.2%
COCc1nnc(NC(=O)c2ccc3c(ccn3C)c2)s1	–	inactive: -12.1%
COC[C@@H]1CN(c2ncccn2)C[C@H]1C(=O)N1CCc2ccccc21	inconclusive: 15.8 µM [inhibitor, partial curve]	–
Cc1cc(=O)oc2cc(OCC(=O)Nc3ccc(O)c(C(=O)O)c3)ccc12	inconclusive: 28.2 µM [inhibitor, partial curve, poor fit]	–
Oc1ccc(NCc2ccc(OCc3ccccc3)cc2)cc1	inconclusive: 1.78 µM [inhibitor, full curve, poor fit]	–
C#CCNC(=O)C1CN(c2cccc(Cl)c2)C(=O)N1 (stereo not drawn)	inactive	–
Cc1cccc(N2CCN(C(=O)c3noc(-c4ccc[nH]c4=O)n3)CC2)c1C	active: 28.2 µM	–
Cc1cccc(Nc2nc(NC3CCCCCC3)nc3c2cnn3-c2ccccc2)c1	–	inactive: -6.31%
CCCn1cnc2cc(NCc3ccc(OC)cc3OC)ccc21	inconclusive: 25.1 µM [inhibitor, partial curve, poor fit]	–
Cc1cccc(N2C(=O)c3ccccc3NC2c2cnc3ccccc3n2)c1 (stereo not drawn)	inconclusive: 39.8 µM [inhibitor, single point]	–
CN(CCCNC(=O)c1ccccc1)CC(F)(F)F	–	inactive: 3.45%
O=C(/C=C/c1cc(Cl)cc(Cl)c1)NC1CCC(O)CC1 (stereo not drawn)	–	inactive: -6.41%
Cc1cccc(C(=O)Oc2cccc(Br)c2)c1C	–	inactive: 14.9%
O=C(Cc1ccccc1)NCc1nnc2n1C(C(=O)O)CC2 (stereo not drawn)	inconclusive: 35.5 µM [inhibitor, partial curve, poor fit]	–
CNC(=O)c1cc2c(n(-c3ccc(C)cc3)c1=O)CC(C)(C)CC2=O	inconclusive: 39.8 µM [inhibitor, single point]	–
CCCCc1c(C)nc2c(OC)cccc2c1SCC(=O)O	inconclusive: 22.4 µM [inhibitor, single point]	–
O=C(NCCOc1cccnc1)c1cn(Cc2cccc(C(F)(F)F)c2)nn1	–	inactive: 30.6%
CC(C)S(=O)(=O)CCNc1nccc(-c2cccnc2)n1	active: 31.6 µM	–
CC(C)c1noc(CN2CCN(c3oc(-c4ccco4)nc3C#N)CC2)n1	inconclusive: 31.6 µM [inhibitor, single point]	–
c1ccc2oc(N3CCN(Cc4ccc(-c5ccn[nH]5)o4)CC3)nc2c1	inconclusive: 3.98 µM [inhibitor, partial curve, poor fit]	–
CCCc1nc(C)cc(N2CCN(c3ccccc3)CC2)n1	inconclusive: 31.6 µM [inhibitor, single point]	–
COc1ccccc1-c1cc(C(=O)NCc2c(C)cc(C)[nH]c2=O)c2c(c1)N(C)CCO2	inconclusive: 44.7 µM [inhibitor, partial curve, poor fit]	–

SMILES	Potency	activity change, negative = inhibition
CCCCC(=O)N1CCC2(CC1)SCC(=O)N2c1ccc(Cl)cc1	inconclusive: 22.4 µM [inhibitor, single point]	–
CC(=O)N1CCN(C(=O)CCC(=O)N2CCC(c3noc4cc(F)ccc34)CC2)CC1	–	inactive: 12.5%
CN1CCOc2c(C(=O)NCc3cccnc3)cc(-c3ccccc3)cc21	active: 28.2 µM	–
Cc1ccc(SCCn2cc(S(=O)(=O)N3CCCC3)ccc2=O)cc1	–	inactive: 15.7%
CSc1ccc(/C=C/C(=O)NCc2ccc(F)cc2)cc1	inconclusive: 20 µM [inhibitor, single point]	–
Cc1cccc(N2CCN(C(=O)c3ccc4c(c3)N(C)C3CCCCN3C4=O)CC2)c1C (stereo not drawn)	inconclusive: 17.8 µM [inhibitor, partial curve, poor fit]	–
O=C(NC1CCN(c2cc(-c3ccc(F)cc3)[nH]n2)C1)c1cc(F)ccc1Cl (stereo not drawn)	inconclusive: 7.94 µM [inhibitor, partial curve]	–
CCN1c2cc(C(=O)Nc3ccc(Oc4ccccc4)cc3)ccc2C(=O)N2CCCCC21 (stereo not drawn)	inconclusive: 31.6 µM [inhibitor, partial curve, poor fit]	–
Cc1nc(-c2ccccc2)n(Cc2ccccc2Cl)c(=O)c1CCO	–	inactive: -25%
O=C(N[C@@H]1C[C@H](Cn2cc(C3CC3)nn2)[C@@H](O)[C@H]1O)c1ccc2c(c1)OCO2	inconclusive: 31.6 µM [inhibitor, partial curve]	–
COC(=O)c1sc(S(=O)(=O)Nc2ccccc2Br)c(C(=O)OC)c1C	–	inactive: -6.14%
Cc1cccc(OC[C@H]2C[C@@H](NC(=O)c3ccno3)[C@H](O)[C@@H]2O)n1	inconclusive: 28.2 µM [inhibitor, partial curve]	–
O=C1NCc2ccccc2CC12CCN(Cc1ccc(-c3ccccc3)cc1)C2 (stereo not drawn)	inconclusive: 56.2 µM [inhibitor, single point]	–
Cc1cccc(C(=O)Nc2cccc(C(=O)OCc3cc(=O)n4c5c(sc4n3)CCCC5)c2)c1	inconclusive: 22.4 µM [inhibitor, single point]	–
CCc1ccc(S(=O)(=O)c2nnn3c2nc(NCc2cccs2)c2sccc23)cc1	inconclusive: 31.6 µM [inhibitor, partial curve, poor fit]	–
COc1ccc(-c2c(C)oc3cc(OC(=O)C(C)C)ccc3c2=O)cc1OC	–	inactive: -4.99%
COc1ccc(CC(=O)NC2CCCc3c2[nH]c2ccccc32)cc1 (stereo not drawn)	inconclusive: 12.6 µM [inhibitor, partial curve]	–
O=C1CCN(S(=O)(=O)c2ccccc2)CCCN(C(=O)c2ccncc2)CCN1	–	inactive: -0.132%
CCc1ccccc1Nc1nn2c(=O)c3ccc(C(=O)NCc4cccs4)cc3nc2s1	inconclusive: 35.5 µM [inhibitor, partial curve, poor fit]	–
CC(=O)Nc1ccc(OCC(=O)NCc2ccc(N3CCOCC3)cc2)nc1	–	inactive: 3.92%
CC(=O)NC1(C)CCN(Cc2cnc(-c3cccc(F)c3)s2)CC1	inconclusive: 44.7 µM [inhibitor, partial curve, poor fit]	–
COCCN1CCC2(CCC1=O)CCN(C(=O)NC1CCCCC1)CC2	–	inactive: 26.3%
COc1ccccc1C(=O)NCc1ccc2c(c1)CCN2C(=O)c1cccc(C)c1	inconclusive: 39.8 µM [inhibitor, single point]	–

SMILES	Potency	activity change, negative = inhibition
COc1ccc(N2CCN(C(=O)C3CCN(S(=O)(=O)c4cnc[nH]4)CC3)CC2)cc1	–	inactive: -28%
CN1CCCCCCN(C(=O)c2nccc3ccccc23)[C@H]2CCC[C@H]2C1=O	–	inactive: 19.2%
COCc1cc(CNC(=O)C2NCCc3[nH]cnc32)[nH]n1 (stereo not drawn)	inconclusive: 28.2 µM [inhibitor, partial curve, poor fit]	–
COc1ccc(Cl)cc1C(=O)N[C@@H]1CN(c2ncccn2)C[C@H]1CN(C)C	inconclusive: 31.6 µM [inhibitor, partial curve, poor fit]	–
CCc1nc2c(c(-c3ccc(Cl)cc3)n1)CN(Cc1ccccc1)CC2	inconclusive: 7.94 µM [inhibitor, partial curve]	–
COc1ccc(CNS(=O)(=O)c2cc(C(=O)Nc3cc(Cl)cc(Cl)c3)ccc2F)cc1	inconclusive: 35.5 µM [inhibitor, single point]	–
C[S+](=O)([O-])N1CCC(Cn2ccc3c(N4CCOCC4)nc(-c4ccncc4)cc32)CC1	inconclusive: 25.1 µM [inhibitor, single point]	–
CCCNc1c(NC(=O)Nc2ccc(C)c(C)c2)c(=O)oc2ccccc12	–	inactive: 10.2%
O=S1(=O)CCN2C(c3cccc(Br)c3)=CSC2=N1	–	inactive: 4.75%
CCOc1ccccc1NC(=O)C(Cc1ccccc1)NS(=O)(=O)c1ccc(Br)s1 (stereo not drawn)	inconclusive: 15.8 µM [inhibitor, partial curve, poor fit]	–
CCCCNc1nc2ccccc2nc1NS(=O)(=O)c1cc(Cl)ccc1Cl	inconclusive: 20 µM [inhibitor, single point]	–
N#Cc1nc(-c2ccco2)oc1N1CCC(C(=O)N2CCC(CCN3CCOCC3)CC2)CC1	inconclusive: 14.1 µM [inhibitor, partial curve, poor fit]	–
COc1cc(F)ccc1-c1cc(C(=O)NCCc2cnc[nH]2)c2c(c1)N(C)CCO2	active: 39.8 µM	–
CCOC(=O)c1sc2nc(CC(=O)OC)nc(Nc3ccc(Cl)cc3)c2c1C	–	inactive: 10.1%
CCOC(=O)C1CCCN(C(=O)C2CCN(c3nnc(C)c4c(C)n(-c5ccccc5)nc34)CC2)C1 (stereo not drawn)	inconclusive: 2.51 µM [inhibitor, full curve, poor fit]	–
Cc1cc(NC(=O)CSc2nc3c([nH]c4ccccc43)c(=O)n2-c2cccc(Cl)c2)no1	inconclusive: 31.6 µM [inhibitor, single point]	–
Cc1ccc(NC(=O)Cn2ccn3nc(-c4ccccc4)c(CO)c3c2=O)c(C)c1	active: 31.6 µM	–
COc1ccc(-c2cnc(Nc3cccnc3)c3c2CCO3)cn1	–	inactive: -35% [at 86.2 µM]
CCOC(=O)N1CCc2c(sc(NCc3ccc(OCC)cc3)c2C(=O)Nc2ccc(OC)cc2OC)C1	inconclusive: 14.1 µM [inhibitor, partial curve, poor fit]	–
COc1ccc2[nH]c(C(=O)N[C@@H]3CN(S(C)(=O)=O)C[C@H]3CN(C)C)cc2c1	active: 28.2 µM	–
Cc1ccc(-n2nnnc2SCc2nc3ccccc3o2)cc1C	inconclusive: 17.8 µM [inhibitor, partial curve, poor fit]	–
O=C(NC1CCN(c2cc(-c3ccc(Cl)cc3)[nH]n2)C1)c1ccc2[nH]ccc2c1 (stereo not drawn)	inconclusive: 8.91 µM [inhibitor, partial curve]	–
